± gives the standard deviation of the averaged measurements. This is one part of the list.

The assay relates to PfAP2-I AP2 domain 3 (GST-tagged). The experiment in a line: gcPBM binding intensity (ln(normalized median fluorescence intensity)); higher = stronger DNA binding. Summed up: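 GST-tagged P. falciparum DNA-binding domains produced in E. coli were incubated for 1 h on an Agilent 4 × 180k array of primer-extended double-stranded 36-bp intergenic genomic probes with negative controls. Binding intensity is the highest Masliner-normalised natural-log median intensity across replicate spots of either probe orientation, with bound protein detected by Alexa488 anti-GST antibody at 488 nm.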
As for “AATTTATTAAAAAAATGTACTTATTTTTTTGTATAA [XGTACX_site5844]”, the “gcPBM binding intensity (ln)” value was determined as 7.61 ± 0.11.
To “TCCTTACATTTTAAAACACACAAAAATTAATTGTTA [CACACA_site2313]” belongs 7.89 ± 0.37; to “AAAAAATAGTGGTATGCATGTCCCTTGTATTTTCTT [TGCATGCA_site587]”, 7.96 ± 0.91.
To “TACTTTTATATGAATACACACAGGAATATAAATATG [CACACA_site7647]” belongs 7.7 ± 0.59.
To “TGGATACACAAAAATTAAAAAAATAAACAAACAAAT [GTGCAC_negctrl_site105]” belongs 7.84 ± 0.52; to “AAAATACCCATTTTAGTACACACTTAAAAAATTATT [CACACA_site8966]”, 7.87 ± 0.47.
In the case of “ACCACCAGGAACAAAGCACATTAGGAAAAATAAAAC [XGTACX_negctrl_site228]”, the “gcPBM binding intensity (ln)” value came out at 8.29 ± 0.59.
On to “TATAAAAAATTAAAATTTTTCTTATTTTTTTTAGAT [TGCATGCA_negctrl_site125]”, for which the “gcPBM binding intensity (ln)” value was determined as 7.33 ± 0.33.
To “CATACATATATTATTGCACACATATAAAATACCCCC [CACACA_site9292]” belongs 10.5 ± 0.45; to TACCAATAAATGAAGGTGCGTGCTTGCCTTTGCTAT, 8.06 ± 0.73.
To “TTGAATAAATTGGAATAAATATAATAAAATAAGGAA [XGTACX_negctrl_site302]” belongs 7.79 ± 0.48; to “TTGTATAGTCTGATATGTACATATATATATATATAA [XGTACX_site4307]”, 7.96 ± 0.36; to “TAGGAATTTAATAAATGTACATATACATAATATATA [XGTACX_site3672]”, 7.45 ± 0.45.
To “TATATATTTTTTAATTGTACACTTCAAAAACAAAAA [XGTACX_site5595]” belongs 7.83 ± 0.18.
Regarding “ATAATCAACATTAGGTGTACAAAATATGTATGTTTT [XGTACX_site6696]”, the “gcPBM binding intensity (ln)” value amounted to 8 ± 0.59.
To “AGAATAAATAAATATTGTACATATAAAATATATATA [XGTACX_site896]” belongs 7.87 ± 0.64; to “TTCAAATTTCCACATACACACCTTGTAGATATATAT [CACACA_site7984]”, 7.97 ± 0.49.
To “AAAAACTTAATATTGACACACATTTTTAAGAATAAT [CACACA_site4291]” belongs 7.5 ± 0.59.
To “ATTGAACACATCTATGCATGCACGGAAAAAAGTACA [TGCATGCA_site401]” belongs 11 ± 0.28; to “TATGCAATATATTATATTCTGTAAATATTATATATT [TGCATGCA_negctrl_site67]”, 7.55 ± 0.37; to “TTTTTTAAAATATGGACACACATATATATATCTGTA [CACACA_site5535]”, 7.73 ± 0.47.
“TAATATTTCATTAGGTGTACACTACATAGTAGTAGA [XGTACX_site366]”: the “gcPBM binding intensity (ln)” value came out at 7.96 ± 0.16.
To “TATAAATATTTTATTGTACACACTTTTTATGAATGA [CACACA_site3136]” belongs 8.14 ± 0.29; to “GTTTGTTTGTTTGTTCGTACATATATAAAATAAAAA [XGTACX_site4731]”, 8.28 ± 0.58; to “TATATAACTAAAATAACACACATATATAAAAATATA [CACACA_site7416]”, 7.5 ± 0.46.
Turning to “ATTATAACACTTATTTCATTTGTATGCCCTTTAAAA [CACACA_negctrl_site955]”, the “gcPBM binding intensity (ln)” value was determined as 8.09 ± 0.73.
To “AGACCTATGATATATACACACATATATTTATTTATA [CACACA_site6630]” belongs 7.77 ± 0.55; to “TATATATATATACCAACACACATACATATATATATA [CACACA_site8530]”, 9.45 ± 0.23.
To “TAAAAAATAAAAATTGCACACTAAAAAATTACGCAC [CACACA_site9129]” belongs 9.64 ± 0.057; to “AAGTATAAATTAAAATGTACTTATAAAAAAAAAGAA [XGTACX_site7028]”, 8.12 ± 0.37; to “TGTCACATAATTTATGCACACAATGATTATGCTTAA [CACACA_site2358]”, 9.63 ± 0.16.
On to “CCATATTTCATTAATGAACACACAAAGAGGTATATA [CACACA_site8431]”, for which the “gcPBM binding intensity (ln)” value was 7.88 ± 0.47.
To “ACATATATTGTACATACACACCTATATAAATATCCT [CACACA_site7503]” belongs 8.24 ± 0.54.
Turning to “TATGTATGTATGTATGCATGTGTAACACCTAAATAT [TGCATGCA_site361]”, the “gcPBM binding intensity (ln)” value is 8.39 ± 0.64.
To “ACATATATATATATGTGTACATATTTATACAACAAT [XGTACX_site6660]” belongs 8.22 ± 0.13; to “AAAAATAAAATATATACACACATATATATATATATA [CACACA_site2943]”, 9.4 ± 0.33.
Consider TTTTTAATTTTGTGGGTGCTTTCGTGTTATTATATA, for which the “gcPBM binding intensity (ln)” value worked out at 9.415 ± 0.021.
To “AGGAAATTTGTTATTGCACACAAATTTTTCTTTTTT [CACACA_site8732]” belongs 10.1 ± 0.29; to “AATGTCAGTATGCGAGGTACACGTATAAAAATTACA [XGTACX_site4109]”, 7.92 ± 0.54.
To “TATTATAATAAACCTATACACACATAAATAAATAAA [GTGCAC_negctrl_site627]” belongs 7.81 ± 0.57.
Turning to “TACATAAATTAAAACACACACACACTAGAAAAAAAA [CACACA_site5278]”, the “gcPBM binding intensity (ln)” value was determined as 8.29 ± 0.23.
To “TTTTACTAAATATATACACACATTATACAGATATAT [CACACA_site5765]” belongs 7.79 ± 0.6; to “TTTGGGTATACACATACATGCATGTCCTTATATATA [TGCATGCA_site84]”, 7.86 ± 0.63.
Turning to “ATATCATAAATTTATGCATGTTCTTTCTTCAACTCT [TGCATGCA_site992]”, the “gcPBM binding intensity (ln)” value was 7.86 ± 0.88.

These data come from the supplement of paper PMC11417369.
